Screen size: about 360,000 compounds; about 25,000 (6.9%) were called active. This list was built around the results that the source calls inconclusive (neither active nor inactive); the mix of calls is not that of the screen. The call rests on the fitted dose curve; in most records, active means well fitted inhibition curve with a large enough effect; inconclusive means small, poorly fitted or top-dose-only effect; inactive means flat fitted curve, though single readings scatter. A potency beside an inconclusive call is a rough fit, not a confirmed value.
These compounds were tested against Luciferin 4-monooxygenase (Photinus pyralis) (UniProt P08659) (assay: qHTS profiling assay for firefly luciferase inhibitor/activator using purifed enzyme and Km concentrations of substrates (counterscreen for miR-21 project)). Conditions: purified FLuc, luminescence inhibition; series mostly up to 57.5 µM.
Sequence of UniProt P08659 (P08659 whole entry, looked up): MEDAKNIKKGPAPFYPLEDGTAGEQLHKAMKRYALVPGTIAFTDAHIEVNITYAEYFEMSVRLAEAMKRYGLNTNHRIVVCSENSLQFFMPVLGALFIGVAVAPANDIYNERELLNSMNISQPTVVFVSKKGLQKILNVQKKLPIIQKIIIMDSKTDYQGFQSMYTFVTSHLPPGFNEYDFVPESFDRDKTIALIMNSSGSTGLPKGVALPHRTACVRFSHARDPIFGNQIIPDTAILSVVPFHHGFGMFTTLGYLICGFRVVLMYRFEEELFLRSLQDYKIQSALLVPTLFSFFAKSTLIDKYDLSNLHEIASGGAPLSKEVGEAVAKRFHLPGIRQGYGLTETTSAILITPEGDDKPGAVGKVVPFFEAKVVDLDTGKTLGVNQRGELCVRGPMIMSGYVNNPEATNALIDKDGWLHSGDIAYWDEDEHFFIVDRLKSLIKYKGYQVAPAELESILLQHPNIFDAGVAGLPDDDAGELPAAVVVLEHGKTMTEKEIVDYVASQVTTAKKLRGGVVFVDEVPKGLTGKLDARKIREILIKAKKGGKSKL
Procedure, shortened: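 Biochemical qHTS of compounds, final roughly 60 µM downward over six points, against 10 nM purified firefly luciferase using Km concentrations of substrates (10 uM D-luciferin, 10 uM ATP) in Tris acetate pH 7.5 buffer; luminescence output.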
`CCCCOC(=O)Nc1nnc(CC)s1` was tested, and the Potency was inconclusive: 23.9 µM [inhibitor, partial curve, poor fit].
With `O=C(NCc1ccc2c(c1)CCN2C(=O)c1ccccc1)c1cc2ccccc2[nH]1` the Potency was inconclusive: 6.01 µM [inhibitor, partial curve].
In the case of `CCc1ccc(C(=O)CN2C(=O)C(C)N(c3ccc(C)cc3)C2=O)cc1` (stereo not drawn), the Potency is reported as “inactive”.
With `Cc1cc(Cl)c(S(N)(=O)=O)cc1OCC(=O)NC1CCCCC1` the Potency was “inactive”.
With `COc1ccc(NC(=O)/C(C#N)=C\c2cc(OC)c(OCc3ccc(C(=O)O)cc3)cc2Br)cc1` the Potency was inconclusive: 12 µM [inhibitor, partial curve].
For `O=C(/C=C/c1ccc(F)cc1)Nc1nc2ccccc2[nH]1`, the Potency was inconclusive: 1.2 µM [inhibitor, full curve, poor fit].
For `COc1ccc(-c2csc(Cc3nc(O)cs3)n2)cc1`, the Potency was active: 2.69 µM.
`CCN=C(N/N=C/c1ccc([N+](=O)[O-])cc1)SC` was tested, and the Potency was inconclusive: 10.7 µM [inhibitor, partial curve].
For `O=C(Nc1cccc2ccccc12)c1ccc([N+](=O)[O-])o1`, the Potency was “inactive”.
`O=C(Nc1cccc(F)c1)Nc1ccc(Cl)cn1` was tested, and the Potency was inconclusive: 30.1 µM [inhibitor, partial curve, poor fit].
In the case of `O=c1[nH]c(SCc2ccccc2Cl)nc2[nH]ncc12`, the Potency is reported as inconclusive: 21.3 µM [inhibitor, partial curve, poor fit].
In the case of `O=C(NNC(=S)NC1CCCCC1)c1ccccc1O`, the Potency is reported as inconclusive: 16.9 µM [inhibitor, partial curve].
For `CCOC(=O)c1c(C)[nH]c(C(=O)N/N=C/c2cccc(OC)c2)c1C`, the Potency was inconclusive: 8.49 µM [inhibitor, partial curve, poor fit].
With `CCc1cc2c(=O)n(CCC(C)C)c(=S)[nH]c2s1` the Potency was inconclusive: 23.9 µM [inhibitor, single point].
For `COc1cc(/C=C2\SC(N)=NC2=O)ccc1O`, the Potency was inconclusive: 37.9 µM [inhibitor, partial curve, poor fit].
`O=C(CSc1ncn[nH]1)Nc1ccccc1-c1ccccc1` was tested, and the Potency was “inactive”.
For `Cc1ccccc1-c1noc(-c2ccc(NCC3CCCO3)c([N+](=O)[O-])c2)n1` (stereo not drawn), the Potency was inconclusive: 12 µM [inhibitor, partial curve].
For `Cc1cccc(N2CCN(S(=O)(=O)c3ccc(-c4cnc(C5CC5)o4)cc3)CC2)c1C`, the Potency was “inactive”.
For `O=C(Nc1ccc2c(c1)OCCO2)c1cccc(S(=O)(=O)N2CCOCC2)c1`, the Potency was inconclusive: 16.9 µM [inhibitor, partial curve].
`CCc1ccc(/C=C2\SC(=S)N(CCC(=O)NC3=NCCS3)C2=O)cc1` was tested, and the Potency was inconclusive: 23.9 µM [inhibitor, partial curve].
In the case of `COc1cc(/C=C/C(=O)CC(=O)/C=C/c2ccc(O)c(OC)c2)ccc1O`, the Potency is reported as inconclusive: 21.3 µM [inhibitor, single point].
`CC(C)(C)C(=O)Nc1ccc(C(=O)NNC(=O)Cc2ccccc2)cc1` was tested, and the Potency was inconclusive: 21.3 µM [inhibitor, single point].
In the case of `COc1ccc(-c2[nH]c(-c3ccc(O)cc3)nc2-c2ccccc2)cc1`, the Potency is reported as inconclusive: 21.3 µM [inhibitor, partial curve, poor fit].
With `COc1ccc(OC)c(S(=O)(=O)NCC(c2ccc(N(C)C)cc2)N2CCOCC2)c1` (stereo not drawn) the Potency was “inactive”.
`COCC(=O)N1CCCC(C(=O)c2ccc(-c3ccccc3)c(F)c2)C1` (stereo not drawn) was tested, and the Potency was inconclusive: 21.3 µM [inhibitor, single point].
`COc1ccccc1NS(=O)(=O)c1ccc(C(=O)NCCCN2CCOCC2)cc1` was tested, and the Potency was “inactive”.
For `Cc1cccc(CS(=O)(=O)c2nnc([C@H](Cc3ccccc3)NC(=O)OC(C)(C)C)o2)c1`, the Potency was inconclusive: 10.7 µM [inhibitor, partial curve].
For `CCOC(=O)c1ccc(NC(=O)CN2C(=O)NC3(CCCCCCC3)C2=O)cc1`, the Potency was inconclusive: 15.1 µM [inhibitor, partial curve, poor fit].
With `Cc1ccc(-n2c(C)cc(/C=N/NC(=O)CC3(C)OCCO3)c2C)cc1` the Potency was active: 23.9 µM.
In the case of `CC(=O)c1cccc(NC(=O)NCCc2ccc(Cl)cc2)c1`, the Potency is reported as inconclusive: 37.9 µM [inhibitor, partial curve, poor fit].
In the case of `CC(=O)c1ccc(N2CCN(C(=O)c3cn(C)c(=O)c4c3c3ccccc3n4C)CC2)cc1`, the Potency is reported as “inactive”.
For `CCS(=O)(=O)N1CCc2cc(C(=O)Nc3ccc(Br)cc3F)ccc21`, the Potency was inconclusive: 23.9 µM [inhibitor, partial curve].
In the case of `Cc1cc(C)cc(NC(=O)CCc2c(C)nc3nc(CNC(=O)c4cccc(F)c4)nn3c2C)c1`, the Potency is reported as “inactive”.
In the case of `Cc1csc(SCC(=O)Nc2cccc3nsnc23)n1`, the Potency is reported as inconclusive: 21.3 µM [inhibitor, partial curve, poor fit].
`COc1ccc(N(Cc2cccs2)C(=O)c2ccco2)cc1` was tested, and the Potency was inconclusive: 42.6 µM [inhibitor, partial curve, poor fit].
In the case of `Cc1cc(C(=O)CCC(=O)NCc2ccccc2F)c(C)s1`, the Potency is reported as inconclusive: 26.9 µM [inhibitor, partial curve, poor fit].
In the case of `O=C(NCc1ccc(Cl)cc1)c1ccc(CSc2nc3ccncc3[nH]2)cc1`, the Potency is reported as “inactive”.
In the case of `CC(CNC(=O)c1ccc2c(c1)nc1n2CCCCC1)c1ccccc1` (stereo not drawn), the Potency is reported as active: 21.3 µM.
For `O=C(Nc1cccnc1)Nc1cccc(F)c1`, the Potency was inconclusive: 23.9 µM [inhibitor, single point].
`CC1CCCCN1Cc1c(O)ccc2c(=O)c(-c3nc4ccccc4s3)c(N)oc12` (stereo not drawn) was tested, and the Potency was active: 12 µM.
`Cc1ccc(C(=O)COC(=O)c2ccccc2N2C(=O)C3C4CCC(C4)C3C2=O)cc1C` (stereo not drawn) was tested, and the Potency was active: 12 µM.
In the case of `Cc1cc(NS(=O)(=O)c2ccc(NC(=O)COc3c(C)ccc(C)c3C)cc2)nc(C)n1`, the Potency is reported as inconclusive: 21.3 µM [inhibitor, partial curve, poor fit].
For `COc1ccccc1NC(=O)Cn1c(CCC(=O)O)ccc1-c1ccc(C)cc1`, the Potency was inconclusive: 26.9 µM [inhibitor, partial curve, poor fit].
Further: nearly all actives have a fitted effect of over 55% in size.
Potency means the concentration at half of the fitted maximal effect; tags describe the fitted curve by direction and shape.
